Data on nine molecules can be found in patent publication US20180362604A1 (SHIRE HUMAN GENETIC THERAPIES, published 2018).

What is called Kd is a measure of binding affinity in units of concentration.

T1: BMP-10 (UniProt O95393 317-424)
T1 construct: bought protein; also called bone morphogenic protein-10
T1 sequence (looked up): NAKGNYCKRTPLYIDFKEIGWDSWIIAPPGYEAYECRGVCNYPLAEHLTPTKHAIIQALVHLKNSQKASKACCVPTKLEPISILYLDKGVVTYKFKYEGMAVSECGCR

T2: Activin A (UniProt P08476 311-426)
T2 sequence (looked up): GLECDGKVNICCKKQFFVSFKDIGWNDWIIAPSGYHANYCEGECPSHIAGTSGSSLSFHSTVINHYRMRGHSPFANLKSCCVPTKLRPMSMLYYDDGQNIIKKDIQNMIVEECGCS

T3: Myostatin (UniProt O14793 267-375)
T3 sequence (looked up): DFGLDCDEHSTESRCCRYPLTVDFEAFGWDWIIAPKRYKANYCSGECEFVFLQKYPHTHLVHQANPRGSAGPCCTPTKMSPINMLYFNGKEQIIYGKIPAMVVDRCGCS

T4: BMP-9 (UniProt Q9UK05 320-429)
T4 construct: bought protein; also called bone morphogenic protein-9
T4 sequence (looked up): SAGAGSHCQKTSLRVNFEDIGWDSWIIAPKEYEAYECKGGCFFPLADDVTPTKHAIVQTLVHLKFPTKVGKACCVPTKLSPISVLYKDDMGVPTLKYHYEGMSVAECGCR

B1: FS315K82T-hFcLALA (Fc fusion)
chain: GNCWLRQAKNGRCQVLYKTELSKEECCSTGRLSTSWTEEDVNDNTLFKWMIFNGGAPNCIPCKETCENVDCGPGKKCRMNKTNKPRCVCAPDCSNITWKGPVCGLDGKTYRNECALLKARCKEQPELEVQYQGRCKKTCRDVFCPGSSTCVVDQTNNAYCVTCNRICPEPASSEQYLCGNDGVTYSSACHLRKATCLLGRSIGLAYEGKCIKAKSCEDIQCTGGKKCLWDFKVGRGRCSLCDELCPDSKSDEPVCASDNATYASECAMKEAACSSGVLLEVKHSGSCNSISEDTEEEEEDEDQDYSFPISSILEW[here human IgG1 Fc with changes without letters]
B2: FS315K(76,81,82)A-hFcLALA (Fc fusion)
chain: GNCWLRQAKNGRCQVLYKTELSKEECCSTGRLSTSWTEEDVNDNTLFKWMIFNGGAPNCIPCKETCENVDCGPGKACRMNAANKPRCVCAPDCSNITWKGPVCGLDGKTYRNECALLKARCKEQPELEVQYQGRCKKTCRDVFCPGSSTCVVDQTNNAYCVTCNRICPEPASSEQYLCGNDGVTYSSACHLRKATCLLGRSIGLAYEGKCIKAKSCEDIQCTGGKKCLWDFKVGRGRCSLCDELCPDSKSDEPVCASDNATYASECAMKEAACSSGVLLEVKHSGSCNSISEDTEEEEEDEDQDYSFPISSILEW[here human IgG1 Fc with changes without letters]
B3: FS315C66A/K75N/C77T-hFcLALA (Fc fusion)
chain: GNCWLRQAKNGRCQVLYKTELSKEECCSTGRLSTSWTEEDVNDNTLFKWMIFNGGAPNCIPCKETAENVDCGPGNKTRMNKKNKPRCVCAPDCSNITWKGPVCGLDGKTYRNECALLKARCKEQPELEVQYQGRCKKTCRDVFCPGSSTCVVDQTNNAYCVTCNRICPEPASSEQYLCGNDGVTYSSACHLRKATCLLGRSIGLAYEGKCIKAKSCEDIQCTGGKKCLWDFKVGRGRCSLCDELCPDSKSDEPVCASDNATYASECAMKEAACSSGVLLEVKHSGSCNSISEDTEEEEEDEDQDYSFPISSILEW[here human IgG1 Fc with changes without letters]
modifications: N-linked glycan on N75 (39.6% occupancy)
notes: hyperglycosylated variant
B4: FS315K(81,82)E-hFcLALA (Fc fusion)
chain: GNCWLRQAKNGRCQVLYKTELSKEECCSTGRLSTSWTEEDVNDNTLFKWMIFNGGAPNCIPCKETCENVDCGPGKKCRMNEENKPRCVCAPDCSNITWKGPVCGLDGKTYRNECALLKARCKEQPELEVQYQGRCKKTCRDVFCPGSSTCVVDQTNNAYCVTCNRICPEPASSEQYLCGNDGVTYSSACHLRKATCLLGRSIGLAYEGKCIKAKSCEDIQCTGGKKCLWDFKVGRGRCSLCDELCPDSKSDEPVCASDNATYASECAMKEAACSSGVLLEVKHSGSCNSISEDTEEEEEDEDQDYSFPISSILEW[here human IgG1 Fc with changes without letters]
B5: FS315C66S/K75N/C77T-hFcLALA (Fc fusion)
chain: GNCWLRQAKNGRCQVLYKTELSKEECCSTGRLSTSWTEEDVNDNTLFKWMIFNGGAPNCIPCKETSENVDCGPGNKTRMNKKNKPRCVCAPDCSNITWKGPVCGLDGKTYRNECALLKARCKEQPELEVQYQGRCKKTCRDVFCPGSSTCVVDQTNNAYCVTCNRICPEPASSEQYLCGNDGVTYSSACHLRKATCLLGRSIGLAYEGKCIKAKSCEDIQCTGGKKCLWDFKVGRGRCSLCDELCPDSKSDEPVCASDNATYASECAMKEAACSSGVLLEVKHSGSCNSISEDTEEEEEDEDQDYSFPISSILEW[here human IgG1 Fc with changes without letters]
modifications: N-linked glycan on N75 (21.5% occupancy)
notes: hyperglycosylated variant
B6: FS303K82T-hFcLALA (Fc fusion)
chain: GNCWLRQAKNGRCQVLYKTELSKEECCSTGRLSTSWTEEDVNDNTLFKWMIFNGGAPNCIPCKETCENVDCGPGKKCRMNKTNKPRCVCAPDCSNITWKGPVCGLDGKTYRNECALLKARCKEQPELEVQYQGRCKKTCRDVFCPGSSTCVVDQTNNAYCVTCNRICPEPASSEQYLCGNDGVTYSSACHLRKATCLLGRSIGLAYEGKCIKAKSCEDIQCTGGKKCLWDFKVGRGRCSLCDELCPDSKSDEPVCASDNATYASECAMKEAACSSGVLLEVKHSGSCNSISEDTEEEEEDEDQ[here human IgG1 Fc with changes without letters]
notes: built from its name
B7: FS315K(82,84)E-hFcLALA (Fc fusion)
chain: GNCWLRQAKNGRCQVLYKTELSKEECCSTGRLSTSWTEEDVNDNTLFKWMIFNGGAPNCIPCKETCENVDCGPGKKCRMNKENEPRCVCAPDCSNITWKGPVCGLDGKTYRNECALLKARCKEQPELEVQYQGRCKKTCRDVFCPGSSTCVVDQTNNAYCVTCNRICPEPASSEQYLCGNDGVTYSSACHLRKATCLLGRSIGLAYEGKCIKAKSCEDIQCTGGKKCLWDFKVGRGRCSLCDELCPDSKSDEPVCASDNATYASECAMKEAACSSGVLLEVKHSGSCNSISEDTEEEEEDEDQDYSFPISSILEW[here human IgG1 Fc with changes without letters]
B8: FS315K(76,84)E-hFcLALA (Fc fusion)
chain: GNCWLRQAKNGRCQVLYKTELSKEECCSTGRLSTSWTEEDVNDNTLFKWMIFNGGAPNCIPCKETCENVDCGPGKECRMNKKNEPRCVCAPDCSNITWKGPVCGLDGKTYRNECALLKARCKEQPELEVQYQGRCKKTCRDVFCPGSSTCVVDQTNNAYCVTCNRICPEPASSEQYLCGNDGVTYSSACHLRKATCLLGRSIGLAYEGKCIKAKSCEDIQCTGGKKCLWDFKVGRGRCSLCDELCPDSKSDEPVCASDNATYASECAMKEAACSSGVLLEVKHSGSCNSISEDTEEEEEDEDQDYSFPISSILEW[here human IgG1 Fc with changes without letters]
notes: printed only as 'K(76,84)E' among the FS315-hFc variants
B9: FS315K84E-hFcLALA (Fc fusion)
chain: GNCWLRQAKNGRCQVLYKTELSKEECCSTGRLSTSWTEEDVNDNTLFKWMIFNGGAPNCIPCKETCENVDCGPGKKCRMNKKNEPRCVCAPDCSNITWKGPVCGLDGKTYRNECALLKARCKEQPELEVQYQGRCKKTCRDVFCPGSSTCVVDQTNNAYCVTCNRICPEPASSEQYLCGNDGVTYSSACHLRKATCLLGRSIGLAYEGKCIKAKSCEDIQCTGGKKCLWDFKVGRGRCSLCDELCPDSKSDEPVCASDNATYASECAMKEAACSSGVLLEVKHSGSCNSISEDTEEEEEDEDQDYSFPISSILEW[here human IgG1 Fc with changes without letters]
notes: printed only as 'K84E' among the FS315-hFc variants

“And” between values parts separate entries of the source, which are not always exact repeats. Identical values can stand only once.

The target in the first test is T1, BMP-10. In words: SPR (BIAcore), anti-human Fc capture, BMP-10 as analyte.
In the case of B1, the binding result is on record as “no binding (tested: 25-0.190 nM)”.
As for B2, the binding result is given as “no binding (tested: 25-0.190 nM)”.
Regarding B3, the binding result was “no binding (tested: 25-0.190 nM)”.
On the same count and under the same terms, in the case of B4 it was “no binding (tested: 25-0.190 nM)”.
On the same count and under the same terms, in the case of B5 it was “no binding (tested: 25-0.190 nM)”.
Still for that read-out and setting: in the case of B6 it was “no binding (tested: 25-0.190 nM)”.

The target in another test is T2, Activin A. In words: cell-based or functional assay.
In the case of B1, the “Activin A IC50, cell-based assay for SMAD pathway (A204 luciferase reporter)” value (shortened to “Activin A IC50, cell-based assay”) came out at 1.2 nM.
For B2, the “Activin A IC50, cell-based assay” value was 1.1 nM and 0.7 nM.
Still for that read-out and setting: the value for B7 was 1.1 nM.
Consider B3, for which the “Activin A IC50, cell-based assay” value worked out at 2.1 nM.
The same measure, in the same setting: the value for B4 was 1 nM; that for B5 was 2.1 nM and 4.2 nM.

A further test addresses T3, Myostatin. In words: cell-based or functional assay.
For B1, the “Myostatin IC50, cell-based assay for SMAD pathway (A204 luciferase reporter)” value (from here on “Myostatin IC50, cell-based assay”) came out at 0.9 nM.
In the case of B7, the “Myostatin IC50, cell-based assay” value is 0.7 nM.
For B3, the “Myostatin IC50, cell-based assay” value was determined as 1.5 nM.
Still for that read-out and setting: the value for B4 was 0.6 nM; that for B5 was 1.5 nM and 1.9 nM.

For another test, the target named is T3, Myostatin. As to the kind of experiment: SPR.
With B7, binding was characterised by a dissociation constant (Kd) of 0.009 nM.
B8: the dissociation constant Kd was found to be 0.009 nM.
B4 showed a Kd of 0.0099 nM.
Molecule B9 had a dissociation constant Kd of 0.0099 nM.

The target of the next test is T3, Myostatin. In words: SPR (BIAcore), anti-human Fc capture, myostatin as analyte.
B1 showed a Kd of 0.015 nM.
Molecule B3 displayed a Kd of 0.0244 nM.
For the molecule B4, binding was put at a Kd of 0.00987 nM.
In turn, B6 came in with a Kd of 0.0097 nM.

The next test has as its target T3, Myostatin. In words: SPR. The source holds these as a separate data set. In general terms: SPR reads the build-up and loss of mass on a sensor chip optically.
Molecule B1 gave a Kd of 0.015 nM.
Regarding B3, the equilibrium dissociation constant (Kd) was 0.0244 nM.
Turning to B5, the affinity, expressed as Kd, was 0.026 nM.

The target in a further test is T4, BMP-9. As to the kind of experiment: SPR (BIAcore), anti-human Fc capture, BMP-9 as analyte.
B1: the binding result was “no binding (tested: 25-0.190 nM)”.
With B2, the binding result was “no binding (tested: 25-0.190 nM)”.
Regarding B3, the binding result is reported as “no binding (tested: 25-0.190 nM)”.
As to B5, the binding result is listed as “no binding (tested: 25-0.190 nM)”.
With B6, the binding result is “no binding (tested: 25-0.190 nM)”.
